Here are results for 30 molecules from PubChem BioAssay AID1745853 (National Center for Advancing Translational Sciences (NCATS), 2022).

The list shows a part of the results. Shown are side measurements of this screen, not its main read-out; they come without a call.

Holding throughout (assay): Primary Screen for Target Class Profiling of Small Molecule Inhibitors of Methyltransferases
Experiment [1] has as its target Glycine N-methyltransferase (Homo sapiens) (UniProt Q14749). The note with it: purified enzyme, MTase-Glo SAH luminescence; measured here: GNMT inhibition; at 40 µM; stronger effect = lower value. The method in brief:
(§1)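 Each enzyme was reacted with SAM and its substrate, with compounds tested once at 40 uM; SAH formed was read by MTase-Glo luminescence.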

Experiment [2] concerns the target Guanidinoacetate N-methyltransferase (Homo sapiens) (UniProt Q14353). The note with it: purified enzyme, MTase-Glo SAH luminescence; measured here: GAMT inhibition; at 40 µM; stronger effect = lower value. In a few lines: as §1
The target of experiment [3] is Histamine N-methyltransferase (Homo sapiens) (UniProt P50135). The note with it: purified enzyme, MTase-Glo SAH luminescence; measured here: HNMT inhibition; at 40 µM; stronger effect = lower value. In a few lines: as §1
The target in experiment [4] is Nicotinamide N-methyltransferase (Homo sapiens) (UniProt P40261). The note with it: purified enzyme, MTase-Glo SAH luminescence; measured here: NNMT inhibition; at 40 µM; stronger effect = lower value. In a few lines:
as §1

The target in experiment [5] is Phenylethanolamine N-methyltransferase (Homo sapiens) (UniProt P11086). The note with it: purified enzyme, MTase-Glo SAH luminescence; measured here: PNMT inhibition; at 40 µM; stronger effect = lower value. The method in brief:
as §1
% is scaled to controls: 0 for no effect and ±100 for the full control effect.

On to `O=C(Cn1ncc2ccccc2c1=O)N1CCCCC1CCn1cccn1` (stereo not given), for which the activity change, negative = inhibition in experiment [1] is -5.23%; in experiment [2], -9.13%; in experiment [3], -4.29%; in experiment [4], -8.73%; in experiment [5] it was -10.5%.

Regarding `Cc1ccc(S(=O)(=O)N2CCc3nc4cc[nH]n4c(=O)c3C2)cc1C`, the activity change, negative = inhibition in experiment [1] was -17.2%; in experiment [2] it was -11.1%; in experiment [3], -8.62%; in experiment [4] it was -19.3%; in experiment [5], -11.8%.

Consider `Cc1ccccc1CN1C(=O)c2ccc(-c3ccccc3)n2CC1(C)C(=O)NC1CCCCCCC1` (stereo not given), for which the activity change, negative = inhibition is -2.54% in experiment [1]; 0.474% in experiment [2]; -4.4% in experiment [3]; -3.4% in experiment [4]; 0.618% in experiment [5].

As for `CC1CCCCC1NC(=O)C1(C)Cn2c(cc3sccc32)C(=O)N1Cc1cccs1` (stereo not given), the activity change, negative = inhibition is 0.327% in experiment [1]; 4.91% in experiment [2]; -3.35% in experiment [3]; -7.88% in experiment [4]; -2.19% in experiment [5].

As to `O=[N+]([O-])c1ccc(Oc2ccc3c(c2)CCC(c2ccccc2)O3)nc1` (stereo not given), the activity change, negative = inhibition in experiment [1] is -3.26%; in experiment [2], -16.6%; in experiment [3], 6.77%; in experiment [4] it was -17%; in experiment [5] it was -9.72%.

Regarding `O=C(/C=C/c1ccc(O)cc1)OCC1OC(O)C(OC2OC(CO)C(O)C(O)C2O)C(O)C1O` (stereo not given), the activity change, negative = inhibition was 4.91% in experiment [1]; -2.13% in experiment [2]; 5.07% in experiment [3]; -9.96% in experiment [4]; 2.57% in experiment [5].

On to `CCOC(=O)C1CCN(C(=O)c2ccc3oc(-c4cccnc4)nc3c2)CC1`, for which the activity change, negative = inhibition in experiment [1] was -1.71%; in experiment [2], -1.87%; in experiment [3], 0.335%; in experiment [4], -6.37%; in experiment [5] it was -7.84%.

Turning to `O=C(Nc1cc(-c2ccncc2)nn1-c1ccccc1)c1ccc(Cl)cc1`, the activity change, negative = inhibition in experiment [1] was -9.6%; in experiment [2] it was -6.59%; in experiment [3], -6.54%; in experiment [4] it was -16.7%; in experiment [5], -6.29%.

Take `CCCN1CC2(CCN(Cc3nc(CCOC)no3)CC2)CC1C(=O)O` (stereo not given): the activity change, negative = inhibition in experiment [1] was -4.65%; in experiment [2], -10.8%; in experiment [3], -5.07%; in experiment [4], -13.1%; in experiment [5], -10.5%.

On to `CCCCCCCCCC(=O)NC(CN1CCOCC1)[C@H](O)c1ccccc1` (stereo not given in full), for which the activity change, negative = inhibition in experiment [1] was -8.56%; in experiment [2] it was -1.21%; in experiment [3], -1.49%; in experiment [4], -13.6%; in experiment [5] it was -1.77%.

With `COc1cccc(CNC(=O)c2cc3n(n2)CC(C)(C(=O)NCc2ccccc2)N(C)C3=O)c1` (stereo not given), the activity change, negative = inhibition in experiment [1] was -4.69%; in experiment [2] it was -0.792%; in experiment [3], -6.99%; in experiment [4], -7.45%; in experiment [5] it was -6.96%.

Regarding `CS(=O)(=O)N(Cc1cccnc1)C1CN(C(=O)Nc2ccc3c(c2)OCCO3)C1`, the activity change, negative = inhibition is -2.41% in experiment [1]; 0.973% in experiment [2]; 1.6% in experiment [3]; -5.71% in experiment [4]; -1.24% in experiment [5].

Take `COCCNC(=O)[C@@H]1C[C@H](Oc2ccccc2)CN1C(=O)c1cnccn1`: the activity change, negative = inhibition in experiment [1] is 2.93%; in experiment [2], 1.51%; in experiment [3], 0.978%; in experiment [4], 3.42%; in experiment [5], -0.803%.

Turning to `Cc1nc2cc(C(=O)NCc3ccccn3)nn2c(C)c1Cc1cccc(Cl)c1`, the activity change, negative = inhibition in experiment [1] is -15.6%; in experiment [2], 7.1%; in experiment [3], 1.86%; in experiment [4] it was -40.5%; in experiment [5], -3.99%.

For `COc1ccccc1CNC(=O)C(C)n1ccc2cc(S(=O)(=O)N3CCCC3)ccc21` (stereo not given), the activity change, negative = inhibition was 0.421% in experiment [1]; 5.08% in experiment [2]; -2.61% in experiment [3]; -0.145% in experiment [4]; -1.87% in experiment [5].

As for `CC1CCN(S(=O)(=O)c2ccc3c(ccn3CCC(=O)N3CCN(c4ccccc4)CC3)c2)CC1`, the activity change, negative = inhibition in experiment [1] was -5.51%; in experiment [2], -4.89%; in experiment [3] it was -5.4%; in experiment [4] it was -9.65%; in experiment [5], -6.29%.

With `COCC(=O)N[C@H]1C[C@@H](CO)N(Cc2cccc(OC)c2)C1`, the activity change, negative = inhibition in experiment [1] is -5.58%; in experiment [2] it was -8.8%; in experiment [3] it was -6.3%; in experiment [4] it was -7.22%; in experiment [5], -10.2%.

For the molecule `CCc1cccc(N2C(=O)c3ccc(-c4ccco4)n3CC2(C)C(=O)NCc2ccc(Cl)cc2)c1` (stereo not given), the activity change, negative = inhibition is -8.71% in experiment [1]; 4.99% in experiment [2]; 1.04% in experiment [3]; -2.62% in experiment [4]; -3.35% in experiment [5].

`CC(=O)[C@@H]1C[C@H](C(C)(C)O[C@@H]2O[C@H](CO)[C@@H](O)[C@H](O)[C@H]2O)CC[C@@]2(CO)OC(=O)C[C@@H]12`: the activity change, negative = inhibition in experiment [1] is 0%; in experiment [2], 7.24%; in experiment [3] it was 7.91%; in experiment [4], -4.45%; in experiment [5] it was 4.59%.

As for `C=C1CCC2C(C)(CO[C@@H]3O[C@H](CO)[C@@H](O)[C@H](O)[C@H]3O)C(O)CCC2(C)C1C(=O)CC1=CCOC1=O` (stereo not given in full), the activity change, negative = inhibition in experiment [1] is 1.97%; in experiment [2], 3.72%; in experiment [3], 13.5%; in experiment [4], -7.24%; in experiment [5], 4.53%.

Take `CCOC(=O)c1cc2n(n1)CC(C)(C(=O)NCCC(C)C)N(c1cccc(C)c1C)C2=O` (stereo not given): the activity change, negative = inhibition in experiment [1] was -2.96%; in experiment [2] it was 0.013%; in experiment [3], 5.7%; in experiment [4] it was 7.25%; in experiment [5], 1.74%.

In the case of `CS(=O)(=O)N1C[C@@H](COc2ccccc2)[C@H](C(N)=O)C1`, the activity change, negative = inhibition is -2.03% in experiment [1]; 1.13% in experiment [2]; 1.63% in experiment [3]; 0.351% in experiment [4]; -0.734% in experiment [5].

With `COc1ccc(-n2c(CCN)n[nH]c2=O)c(C)c1`, the activity change, negative = inhibition is -6.63% in experiment [1]; -9.2% in experiment [2]; -3.15% in experiment [3]; -12.6% in experiment [4]; -6.89% in experiment [5].

Turning to `c1ccc2c(Nc3nnc(-c4ccncc4)s3)cccc2c1`, the activity change, negative = inhibition in experiment [1] was -27.7%; in experiment [2], -14.3%; in experiment [3], -1.74%; in experiment [4], -28.1%; in experiment [5], -11.6%.

For `O=C(c1ccc2c(=O)nc3c(-c4ccc(F)cc4)n[nH]n3c2c1)N1CCN(c2ccccn2)CC1`, the activity change, negative = inhibition in experiment [1] is -6.1%; in experiment [2], 0.881%; in experiment [3] it was -6.12%; in experiment [4], -3.25%; in experiment [5], -3.89%.

In the case of `CC(=O)Nc1cccc(C(=O)N2CCC3(CC2)N=C(c2ccc(C)cc2)NO3)c1`, the activity change, negative = inhibition is -3.11% in experiment [1]; 1.41% in experiment [2]; -2.81% in experiment [3]; -2.48% in experiment [4]; -5.44% in experiment [5].

Consider `CCCN(CCN1CCN(c2ccccc2OC)CC1)C1CCc2ncsc2C1` (stereo not given), for which the activity change, negative = inhibition in experiment [1] was -1.57%; in experiment [2], 0.535%; in experiment [3] it was 2.59%; in experiment [4], -16.6%; in experiment [5], 2.29%.

As to `COc1cc(O)c2c(c1Cl)CC(C)OC2=O` (stereo not given), the activity change, negative = inhibition in experiment [1] was -22.2%; in experiment [2], -4.66%; in experiment [3], 5.71%; in experiment [4], -15.3%; in experiment [5], -9.8%.

For the molecule `O=C(c1ccc(C(F)(F)F)cc1)N1CCCC(C(=O)N2CCC(c3nc4ccncc4[nH]3)CC2)C1` (stereo not given), the activity change, negative = inhibition was -7.47% in experiment [1]; -12.6% in experiment [2]; -14% in experiment [3]; -53.8% in experiment [4]; -12.4% in experiment [5].

Take `COCCCNC(=O)Cn1ccc2cc(S(=O)(=O)N3CCCCC3)ccc21`: the activity change, negative = inhibition in experiment [1] was 1.85%; in experiment [2], 0.867%; in experiment [3], -0.283%; in experiment [4], -1.12%; in experiment [5] it was -2.62%.
